# Laboratory results: PubChem BioAssay (NCATS)
# The shares of active, inactive and inconclusive entries below differ from those in the screen. Potencies of inconclusive entries are doubtful fits and often do not repeat. Activity calls are given as the source filed them. The call rests on the fitted dose curve; in most records, active means well fitted cell-killing curve with a large enough effect; inconclusive means small, poorly fitted or top-dose-only effect, or effect the other way; inactive means no such curve, though single readings can be large or run the other way.
# What was measured:
# [1] = Viability qHTS for spleen associated tyrosine kinase inhibitor (SYKi) naive MV4-11 cells (AID 1963823); conditions: MV4-11 AML viability, CellTiter-Glo luminescence, 72 h; series mostly up to 45 µM; further: nearly all actives have a fitted effect of over 40% in size
# In short: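 Compounds were dispensed acoustically onto plates, MV4-11 cells (SYKi-naive) added at 500 per well, and plates incubated 72 hr at 37 C. CellTiter-Glo was added and luminescence measured after 10 min.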
# [2] = Viability qHTS for spleen associated tyrosine kinase inhibitor (SYKi) drug resistant MV4-11 cells (AID 1963824); further: nearly all actives have a fitted effect of over 35% in size
# In short: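 CellTiter-Glo luminescence, read 10 min after reagent addition, reports viability after a 72 hr compound exposure. Cells are an MV4-11 line made resistant to SYK inhibition, seeded at 500 per well onto compound-containing plates.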
# Potency means the concentration at half of the fitted maximal effect; tags describe the fitted curve by direction and shape.
SMILES,Potency [1],Potency [2]
CC(C)Cc1ccc([C@@H](C)C(=O)NS(C)(=O)=O)cc1,inactive,inactive
C/C1=C\CC[C@H](C)CCO[C@@H]2O[C@H](CO[C@@H]3OC[C@](O)(COC1=O)[C@H]3O)[C@@H](O)[C@H](O)[C@H]2O,inactive,inactive
OCC(CO[C@@H]1O[C@H](CO)[C@@H](O)[C@H](O)[C@H]1O)c1ccc2c(c1)OCO2 (stereo partly drawn),inactive,inactive
O=C(Nc1ccccc1-c1cn2c(CN3CCNCC3)csc2n1)c1ccc2ccccc2n1,active: 10300 nM,active: 20600 nM
CC(C)=C1C[C@@]2(C)C(=CC1=O)CC[C@@H](OC(=O)/C(C)=C/CO)[C@@H]2C,"inconclusive: 1140 nM [cytotoxic, full curve]","inconclusive: 1800 nM [cytotoxic, full curve]"
COc1c(O[C@@H]2O[C@H](CO)[C@@H](O)[C@H](O)[C@H]2O)c(CCC(=O)O)cc2ccoc12,inactive,inactive
O=C(O)Cc1ccc2c(c1)C(=O)c1ccccc1CO2,"inconclusive: 2110 nM [rising, partial curve, poor fit]","inconclusive: 7.5 nM [rising, full curve, poor fit]"
Nc1nc(Nc2ccc(S(N)(=O)=O)cc2)n(C(=S)Nc2c(F)cccc2F)n1,"inconclusive: 1840 nM [cytotoxic, full curve]","inconclusive: 1840 nM [cytotoxic, full curve]"
CC1CCCC2OC2C(=O)c2c(O)cc(O)cc2CC(=O)O1 (stereo not drawn),"inconclusive: 20600 nM [cytotoxic, single point]","inconclusive: 20600 nM [cytotoxic, single point]"
